Source: US20220389120A1 (published 2022)

T1: recombinant human Ang2 (Biolegend) (human, UniProt O15123 19-496)
T1 chain: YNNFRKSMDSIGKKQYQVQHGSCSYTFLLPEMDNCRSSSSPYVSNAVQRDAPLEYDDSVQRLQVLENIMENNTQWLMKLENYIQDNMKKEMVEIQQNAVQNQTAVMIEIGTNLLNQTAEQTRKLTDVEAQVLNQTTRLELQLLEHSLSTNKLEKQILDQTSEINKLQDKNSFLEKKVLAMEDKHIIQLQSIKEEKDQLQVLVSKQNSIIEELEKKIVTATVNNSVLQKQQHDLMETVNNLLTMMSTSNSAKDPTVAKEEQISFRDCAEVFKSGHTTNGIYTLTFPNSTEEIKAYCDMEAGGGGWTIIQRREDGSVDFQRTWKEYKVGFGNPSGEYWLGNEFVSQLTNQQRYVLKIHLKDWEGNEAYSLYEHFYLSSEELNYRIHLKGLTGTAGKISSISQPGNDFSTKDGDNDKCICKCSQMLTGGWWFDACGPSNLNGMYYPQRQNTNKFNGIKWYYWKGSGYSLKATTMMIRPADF


Tests used:
[1] = target: T1, recombinant human Ang2 (Biolegend); experiment: Ang2-Tie2 blocking ELISA; Test 2
[2] = target: T1, recombinant human Ang2 (Biolegend); experiment: Ang2-Tie2 blocking ELISA; Test 1
[3] = target: T1, recombinant human Ang2 (Biolegend); experiment: Ang2-Tie2 blocking ELISA; Test 3

Row | IC50 [1] | IC50 [2] | IC50 [3] | Binder
1 | 0.71 nM | 0.64 nM | – | ZA2-s (protein) SDTGRPFVEMYSEIPEIIHMTEGRELVIPCRVTSPNITVTLKKFPLDTLIPDGKRIIWDSRKGFIISNATYKEIGLLTCEATVNGHLYKTNYLTHRQTNTIIDVVLSPSHGIELSVGEKLVLNCTARTELNVGIDFNWEYPSSKHQHKKLVNRDLKTQSGSEMKKFLSTLTIDGVTRSDQGLYTCAASSGLMTKKNSTFVRVHEK[sequence of human IgG4 Fc with S228P (EU numbers) omitted]GGGGGAQTNFMPMDDLEQRLYEQFILQQGLE
2 | – | 0.19 nM | 0.04 nM | ZA2-d (Fc fusion) SDTGRPFVEMYSEIPEIIHMTEGRELVIPCRVTSPNITVTLKKFPLDTLIPDGKRIIWDSRKGFIISNATYKEIGLLTCEATVNGHLYKTNYLTHRQTNTIIDVVLSPSHGIELSVGEKLVLNCTARTELNVGIDFNWEYPSSKHQHKKLVNRDLKTQSGSEMKKFLSTLTIDGVTRSDQGLYTCAASSGLMTKKNSTFVRVHEK[sequence of human IgG4 Fc with S228P (EU numbers) omitted]GGGGGAQTNFMPMDDLEQRLYEQFILQQGGGGSGGGGSGGGGSGGGGSTNFMPMDDLEQRLYEQFILQQGLE
